Results: the supplement of paper PMC12217912
This is one part of the list. The full chains were built here from the parent and the listed change. Values near 0.05 are background.

B1: TEV protease; numbered along this chain (parent)
chain: MGESLFKGPRDYNPISSSICHLTNESDGHTTSLYGIGFGPFIITNKHLFRRNNGTLVVQSLHGVFKVKDTTTLQQHLVDGRDMIIIRMPKDFPPFPQKLKFREPQREERICLVTTNFQTKSMSSMVSDTSCTFPSGDGIFWKHWIQTKDGQCGSPLVSTRDGFIVGIHSASNFTNTNNYFTSVPKNFMELLTNQEAQQWVSGWRLNADSVLWGGHKVFMVKPEEPFQPVKEATQL

Variants of: B1
Assay: raw area under fraction-flipped curve 0-4 h after induction (AUC4h, not background-subtracted), DNA-recorder readout of cleavage of the substrate (dimensionless); higher = more cleavage of the substrate by the protease variant
Conditions: temperature: 34 °C; time window: 0-4 h after rhamnose induction
Procedure: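 In vivo DNA recorder in E. coli TOP10(DE3) ΔrhaA at 34 °C. Each TEVp single-site mutant (parent TEVp 0) is paired with a single-site variant of the 7-mer TEVs (canonical ENLYFQ|S). The substrate sits between flexible linkers in a Bxb1-sfGFP-TEVs-SsrA fusion, so cleavage stabilises Bxb1 and speeds flipping of a recombination array, read by NGS. The value is the raw area under the fraction-flipped curve over 0-4 h after rhamnose induction (AUC4h), with ≥20 reads per time point. It is not background-subtracted; inactive controls average about 0.047.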
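Note: Bxb1 expression induced with 0.2% (w/v) L-rhamnose at OD600 near 0.5, cultures sampled hourly, flipped fraction per protease–substrate barcode pair counted by paired-end Illumina sequencing.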

Variant	area with substrate ENLYFCS	area with substrate ENLYFFS	area with substrate ENLYFGS	area with substrate ENLYFHS	area with substrate ENLYFIS	area with substrate ENLYFKS	area with substrate ENLYFLS	area with substrate ENLYFMS	area with substrate ENLYFNS	area with substrate ENLYFRS	area with substrate ENLYFVS	area with substrate ENLYFYS	area with substrate ENLYFDS	area with substrate ENLYFES	area with substrate ENLYFWS	area with substrate ENLYFPS	area with substrate ENLYFTS	area with substrate ENLYFSS
T115A	0.0619	0.0775	0.0599	0.0531	0.0563	0.0697	0.0692	0.0672	0.0424	0.064	0.0555	0.0515						
N178H	0.065							0.0767	0.0765				0.0581	0.0844	0.0592			
N178K	0.0486	0.0646		0.0707		0.0738	0.0459	0.0567	0.0659		0.053	0.0553	0.0653	0.0812		0.0536	0.0595	
G162K	0.0838				0.0538			0.0665						0.0785		0.0562		
T159S	0.059	0.0741			0.0579	0.0563	0.0601		0.0672			0.0758		0.0637	0.0534	0.058	0.0601	0.0617
V113I	0.0591			0.0549			0.06	0.0675		0.0538	0.0556			0.0625		0.0524	0.0676	
V113F	0.0673	0.0589						0.0837	0.0612			0.0727			0.0452		0.054	
L211R	0.075			0.0438				0.0602	0.0747	0.0746	0.043					0.0351	0.0498	
L211Y	0.0379	0.066		0.0534	0.0557		0.065	0.0707	0.0747	0.0575			0.068	0.066		0.0547	0.0662	
Q118R	0.0597	0.0646	0.0518	0.0472	0.0665		0.0592	0.0652		0.0741			0.0843	0.0541		0.0567	0.0548	
F92D	0.028	0.0434	0.0359		0.0575	0.0494		0.039	0.0519	0.0726					0.0482	0.0584	0.0481	0.054
A207W	0.0638	0.068			0.0662	0.0475		0.055	0.0647		0.0648	0.0667			0.0737	0.0414		0.0686
L190A	0.0647	0.0669			0.052			0.077	0.0643		0.0769	0.0537	0.0818	0.0574	0.0795	0.0412		0.068
T147H	0.08		0.0492		0.0687			0.055	0.0599	0.0611	0.057		0.0485	0.0452		0.0677	0.0632	0.0657
C111P	0.0422	0.0641			0.0511	0.0881		0.0548	0.0629	0.059	0.0495		0.081		0.0617	0.0469		
I86T	0.0565	0.0726		0.0405	0.0564	0.0576		0.0496		0.0447				0.0589	0.0471	0.0524	0.0448	
S154K	0.0594	0.067	0.0504		0.0544		0.058	0.0322	0.0687	0.0595	0.0533		0.0504	0.0518			0.0569	0.0539

Variant	area with substrate ENLYFCS	area with substrate ENLYFFS	area with substrate ENLYFGS	area with substrate ENLYFHS	area with substrate ENLYFIS	area with substrate ENLYFKS	area with substrate ENLYFLS	area with substrate ENLYFMS	area with substrate ENLYFNS	area with substrate ENLYFRS	area with substrate ENLYFVS	area with substrate ENLYFYS	area with substrate ENLYFDS	area with substrate ENLYFES	area with substrate ENLYFWS	area with substrate ENLYFPS	area with substrate ENLYFTS	area with substrate ENLYFSS
S154Y	0.0598	0.0687	0.0616		0.053									0.05		0.0588		0.0553
A170H	0.0655	0.0224		0.0585						0.0637	0.0637			0.0621				
D82A	0.0365	0.0746		0.0485	0.0561				0.0631	0.0415	0.0476					0.0553	0.08	
D82P	0.0427	0.0492			0.0336	0.0492						0.012	0.0444	0.0624		0.0618	0.061	
S158F	0.044	0.0709	0.0564	0.0139	0.0566					0.0385			0.0532	0.0634		0.0348	0.0539	
S158P	0.0396	0.0503			0.0451	0.0559		0.0561	0.0586		0.0765			0.06	0.0538		0.0353	0.0582
W212R	0.0456				0.0575		0.0356	0.0601	0.0672			0.0666	0.0611	0.0576	0.0543	0.0759	0.0448	0.0551
W212C	0.0585	0.0743		0.073	0.0582					0.0745		0.0547				0.0636		
N186D	0.0409	0.0618		0.0611	0.0527	0.0717	0.0709	0.0757				0.0661		0.0596	0.0505	0.0924		
M125G	0.0739	0.0623			0.0624	0.0666		0.0634		0.0579		0.0588	0.0803	0.0627	0.0617	0.0586	0.0316	0.0525
M125C	0.0538			0.0519	0.0598							0.0676		0.0536		0.0585	0.0623	
V157Q	0.0528	0.0301			0.0411			0.0663	0.0653	0.0608	0.0448		0.0559	0.0555	0.0502	0.0706	0.0502	0.0643
S123R	0.0544	0.0658	0.072		0.0545	0.0641	0.0466	0.0683	0.067	0.0684		0.0598	0.0633	0.0657		0.0618	0.0547	0.0604
R81W	0.0511	0.0632	0.0615		0.061	0.0435	0.0646		0.0539			0.0696	0.056	0.0721	0.061	0.0853		0.0479
Y179F	0.049	0.0594		0.0568			0.0522	0.0716	0.0695	0.0609					0.0627		0.0603	
N175H	0.0605				0.0612					0.0617								
